# In the supplement of paper PMC8728848:
# Some of the results follow.
# Legend:
# Assay in all cases: glycan array binding signal (z-score within array); higher = stronger binding
# Settings in all cases: glycan notation: IUPAC condensed, linker removed
# [1] = molecular target: Fuc(a1-2)Gal
# Outline: (§1)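 Glycan array data were curated from 3228 arrays in the Consortium for Functional Glycomics database and kept only where the protein sequence was available. Glycan names were converted to IUPAC-condensed notation, and columns mapping to the same glycan were averaged. The binding signal is a within-array Z-score, averaged across arrays of the same protein sequence at different concentrations or buffers and across linkers. Negative Z-scores can be read as non-binding.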
# [2] = molecular target: Fuc(a1-2)Gal(b1-3)GalNAc
# Outline: as §1
# [3] = molecular target: Fuc(a1-2)Gal(b1-3)GalNAc(a1-3)[Fuc(a1-2)]Gal(b1-4)Glc
# Outline: as §1
# [4] = molecular target: Fuc(a1-2)Gal(b1-3)GalNAc(a1-3)[Fuc(a1-2)]Gal(b1-4)GlcNAc
# Outline: as §1
# [5] = molecular target: Fuc(a1-2)Gal(b1-3)GalNAc(b1-3)Gal
# Outline: as §1
# [6] = molecular target: Fuc(a1-2)Gal(b1-3)GalNAc(b1-3)Gal(a1-4)Gal(b1-4)Glc
# Outline: as §1
# [7] = molecular target: Fuc(a1-2)Gal(b1-3)GalNAc(b1-4)[Neu5Ac(a2-3)]Gal(b1-4)Glc
# Outline: as §1
# [8] = molecular target: Fuc(a1-2)Gal(b1-3)GlcNAc
# Outline: as §1
# [9] = molecular target: Fuc(a1-2)Gal(b1-3)GlcNAc(b1-2)Man(a1-3)[Fuc(a1-2)Gal(b1-3)GlcNAc(b1-2)Man(a1-6)]Man(b1-4)GlcNAc(b1-4)GlcNAc
# Outline: as §1
# [10] = molecular target: Fuc(a1-2)Gal(b1-3)GlcNAc(b1-2)Man(a1-3)[Fuc(a1-2)Gal(b1-3)GlcNAc(b1-2)Man(a1-6)]Man(b1-4)GlcNAc(b1-4)[Fuc(a1-6)]GlcNAc
# Outline: as §1
# [11] = molecular target: Fuc(a1-2)Gal(b1-3)GlcNAc(b1-3)Gal(b1-4)Glc
# Outline: as §1
# [12] = molecular target: Fuc(a1-2)Gal(b1-3)GlcNAc(b1-3)GalNAc
# Outline: as §1
# [13] = molecular target: Fuc(a1-2)Gal(b1-3)GlcNAc(b1-3)[Fuc(a1-2)Gal(b1-3)GlcNAc(b1-6)]GalNAc
# Outline: as §1
# [14] = molecular target: Fuc(a1-2)Gal(b1-3)GlcNAc(b1-3)[Gal(b1-4)GlcNAc(b1-6)]Gal(b1-4)Glc
# Outline: as §1
# [15] = molecular target: Fuc(a1-2)Gal(b1-3)GlcNAc(b1-3)[Neu5Ac(a2-6)Gal(b1-4)GlcNAc(b1-6)]Gal(b1-4)Glc
# Outline: as §1
# [16] = molecular target: Fuc(a1-2)Gal(b1-3)GlcNAc6S
# Outline: as §1
# [17] = molecular target: Fuc(a1-2)Gal(b1-3)[Fuc(a1-4)]GlcNAc
# Outline: as §1
# [18] = molecular target: Fuc(a1-2)Gal(b1-3)[Fuc(a1-4)]GlcNAc(b1-2)Man(a1-3)[Fuc(a1-2)Gal(b1-3)[Fuc(a1-4)]GlcNAc(b1-2)Man(a1-3)]Man(b1-4)GlcNAc(b1-4)GlcNAc
# Outline: as §1
# [19] = molecular target: Fuc(a1-2)Gal(b1-3)[Fuc(a1-4)]GlcNAc(b1-2)Man(a1-3)[Fuc(a1-2)Gal(b1-3)[Fuc(a1-4)]GlcNAc(b1-2)Man(a1-6)]Man(b1-4)GlcNAc(b1-4)[Fuc(a1-6)]GlcNAc(b1-4)[Fuc(a1-6)]GlcNAc
# Outline: as §1
# [20] = molecular target: Fuc(a1-2)Gal(b1-3)[Fuc(a1-4)]GlcNAc(b1-3)[Fuc(a1-3)[Gal(b1-4)]GlcNAc(b1-6)]Gal(b1-4)Glc
# Outline: as §1
# [21] = molecular target: Fuc(a1-2)Gal(b1-3)[Fuc(a1-4)]GlcNAc(b1-3)[Gal(b1-4)GlcNAc(b1-6)]Gal(b1-4)Glc
# Outline: as §1
# [22] = molecular target: Fuc(a1-2)Gal(b1-4)Fuc(a1-3)]GlcNAc(b1-2)Man(a1-3)[Fuc(a1-2)Gal(b1-4)[Fuc(a1-3)]GlcNAc(b1-2)Man(a1-6)]Man(b1-4)GlcNAc(b1-4)GlcNAc
# Outline: as §1
# [23] = molecular target: Fuc(a1-2)Gal(b1-4)Glc
# Outline: as §1
# [24] = molecular target: Fuc(a1-2)Gal(b1-4)Glc6S
# Outline: as §1
# [25] = molecular target: Fuc(a1-2)Gal(b1-4)GlcNAc
# Outline: as §1
# [26] = molecular target: Fuc(a1-2)Gal(b1-4)GlcNAc(b1-2)Man
# Outline: as §1
# [27] = molecular target: Fuc(a1-2)Gal(b1-4)GlcNAc(b1-2)Man(a1-3)[Fuc(a1-2)Gal(b1-4)GlcNAc(b1-2)Man(a1-6)]Man(b1-4)GlcNAc(b1-4)GlcNAc
# Outline: as §1
# [28] = molecular target: Fuc(a1-2)Gal(b1-4)GlcNAc(b1-2)Man(a1-3)[Fuc(a1-2)Gal(b1-4)GlcNAc(b1-2)Man(a1-6)]Man(b1-4)GlcNAc(b1-4)[Fuc(a1-6)]GlcNAc
# Outline: as §1
# [29] = molecular target: Fuc(a1-2)Gal(b1-4)GlcNAc(b1-2)[Fuc(a1-2)Gal(b1-4)GlcNAc(b1-4)]Man(a1-3)[Fuc(a1-2)Gal(b1-4)GlcNAc(b1-2)Man(a1-6)]Man(b1-4)GlcNAc(b1-4)GlcNAc
# Outline: as §1
# [30] = molecular target: Fuc(a1-2)Gal(b1-4)GlcNAc(b1-3)Gal(b1-4)GlcNAc
# Outline: as §1
# [31] = molecular target: Fuc(a1-2)Gal(b1-4)GlcNAc(b1-3)Gal(b1-4)GlcNAc(b1-2)Man(a1-3)[Fuc(a1-2)Gal(b1-4)GlcNAc(b1-3)Gal(b1-4)GlcNAc(b1-2)Man(a1-6)]Man(b1-4)GlcNAc(b1-4)GlcNAc
# Outline: as §1
# [32] = molecular target: Fuc(a1-2)Gal(b1-4)GlcNAc(b1-3)Gal(b1-4)GlcNAc(b1-3)Gal(b1-4)GlcNAc
# Outline: as §1
# [33] = molecular target: Fuc(a1-2)Gal(b1-4)GlcNAc(b1-3)GalNAc
# Outline: as §1
# [34] = molecular target: Fuc(a1-2)Gal(b1-4)GlcNAc(b1-3)[Fuc(a1-2)Gal(b1-4)GlcNAc(b1-6)]GalNAc
# Outline: as §1
# [35] = molecular target: Fuc(a1-2)Gal(b1-4)GlcNAc(b1-3)[Fuc(a1-3)[Gal(b1-4)]GlcNAc(b1-6)]Gal(b1-4)Glc
# Outline: as §1
# [36] = molecular target: Fuc(a1-2)Gal(b1-4)GlcNAc(b1-6)GalNAc
# Outline: as §1
# [37] = molecular target: Fuc(a1-2)Gal(b1-4)GlcNAc6S
# Outline: as §1
binder,measurement,setting,value
Threefoil (Haloarcula marismortui) (protein) GSSHHHHHHHHHHSSGLVPRGSHMGDGYYKLVARHSGKALDVENASTSDGANVIQYSYSGGDNQQWRLVDLGDGYYKLVARHSGKALDVENASTSDGANVIQYSYSGGDNQQWRLVDLGDGYYKLVARHSGKALDVENASTSDGANVIQYSYSGGDNQQWRLVDL,glycan array binding signal (z-score),[1],-0.057
same,glycan array binding signal (z-score),[2],-0.158
same,glycan array binding signal (z-score),[3],-0.119
same,glycan array binding signal (z-score),[4],-0.165
same,glycan array binding signal (z-score),[5],-0.202
same,glycan array binding signal (z-score),[6],-0.212
same,glycan array binding signal (z-score),[7],-0.191
same,glycan array binding signal (z-score),[8],-0.251
same,glycan array binding signal (z-score),[9],-0.094
same,glycan array binding signal (z-score),[10],0.056
same,glycan array binding signal (z-score),[11],-0.192
same,glycan array binding signal (z-score),[12],-0.292
same,glycan array binding signal (z-score),[13],-0.126
same,glycan array binding signal (z-score),[14],0
same,glycan array binding signal (z-score),[15],-0.187
same,glycan array binding signal (z-score),[16],-0.132
same,glycan array binding signal (z-score),[17],-0.203
same,glycan array binding signal (z-score),[18],-0.191
same,glycan array binding signal (z-score),[19],-0.217
same,glycan array binding signal (z-score),[20],-0.256
same,glycan array binding signal (z-score),[21],-0.143
same,glycan array binding signal (z-score),[22],-0.174
same,glycan array binding signal (z-score),[23],-0.107
same,glycan array binding signal (z-score),[24],-0.212
same,glycan array binding signal (z-score),[25],-0.156
same,glycan array binding signal (z-score),[26],-0.199
same,glycan array binding signal (z-score),[27],-0.082
same,glycan array binding signal (z-score),[28],-0.202
same,glycan array binding signal (z-score),[29],-0.182
same,glycan array binding signal (z-score),[30],-0.045
same,glycan array binding signal (z-score),[31],-0.024
same,glycan array binding signal (z-score),[32],-0.133
same,glycan array binding signal (z-score),[33],-0.049
same,glycan array binding signal (z-score),[34],-0.114
same,glycan array binding signal (z-score),[35],0.235
same,glycan array binding signal (z-score),[36],0.058
same,glycan array binding signal (z-score),[37],-0.285
